# Experimental data reported in PubChem BioAssay AID624417 (National Center for Advancing Translational Sciences (NCATS), 2012).
# Among all 410,000 compounds or so, about 6,400 (1.6%) were called active. Inconclusive means that the source gave no clear call. Such entries were picked first, then a sample of the others. The call rests on the fitted dose curve; in most records, active means well fitted inhibition curve with a large enough effect; inconclusive means small, poorly fitted or top-dose-only effect; inactive means no such curve, though single readings can be large or run the other way. No potency is given beside an inconclusive call; the fits are too rough.
# Target: Glucagon-like peptide 1 receptor (Homo sapiens) (UniProt P43220)
# Assay: qHTS of GLP-1 Receptor Inverse Agonists (Inhibition Mode); further: nearly all actives have a fitted effect of over 55% in size
# Conditions: HEK293 GLP-1R CRE-luciferase, luminescence, 24 h, GLP-1R form is constitutively active; activity change, negative = inhibition: at 38.3 µM (top of the series) unless noted
# Method in brief: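 Inverse agonists were sought by their lowering of basal cAMP reporter luciferase output in HEK293 cells stably carrying constitutively active human GLP-1R, after 24 h compound treatment.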
# On the % scale 0 is the no-effect control and ±100 the full control effect; potency means the concentration at half of the fitted maximal effect; tags describe the fitted curve by direction and shape.
# Sequence of UniProt P43220 (P43220 whole entry, looked up): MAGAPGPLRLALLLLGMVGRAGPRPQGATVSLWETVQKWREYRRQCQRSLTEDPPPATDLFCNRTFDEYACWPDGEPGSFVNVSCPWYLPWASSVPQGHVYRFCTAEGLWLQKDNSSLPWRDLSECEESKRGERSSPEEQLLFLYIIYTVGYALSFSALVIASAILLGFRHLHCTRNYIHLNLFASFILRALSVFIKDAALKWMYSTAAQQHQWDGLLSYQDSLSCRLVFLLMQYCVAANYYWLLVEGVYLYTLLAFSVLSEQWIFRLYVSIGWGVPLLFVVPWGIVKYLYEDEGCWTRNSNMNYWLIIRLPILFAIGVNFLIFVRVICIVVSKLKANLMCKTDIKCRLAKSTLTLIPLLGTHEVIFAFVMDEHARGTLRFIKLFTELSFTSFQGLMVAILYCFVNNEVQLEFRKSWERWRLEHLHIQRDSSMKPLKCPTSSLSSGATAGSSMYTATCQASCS
Compound,Potency,"activity change, negative = inhibition"
Cc1nn(CC(=O)N2CCN(c3ccccc3)CC2)c(=O)c2cccn12,inactive,–
COc1ccc(N=C2C(=Nc3ccc(OC)cc3)N(c3ccc(OC)cc3)C(=S)N2C(=O)c2ccc(OC)cc2)cc1,–,inactive: 2.71%
Cc1cc(C)c(/C=C/c2onc(C)c2S(=O)(=O)N2CCC(C(=O)NCc3ccco3)CC2)c(C)c1,"inconclusive [inhibitor, single point]",–
CC(=O)Nc1ccc(OCC(=O)N2CCC(Cc3ccccc3)CC2)cc1,active: 12.6 µM,–
O=C1c2ccccc2NC(c2ccccc2)N1/N=C/c1ccccc1 (stereo unspecified),"inconclusive [inhibitor, partial curve, poor fit]",–
CSC(SC)=C(C#N)C(=O)c1ccccc1,"inconclusive [inhibitor, single point]",–
Cc1cc(C(=O)Nc2ccccn2)cs1,–,inactive: -6.33%
CCOC(=O)c1c(C)[nH]c(C)c1S(=O)(=O)N(C)CC(=O)N1CCN(c2ccccc2OC)CC1,–,inactive: 14.5%
O=C(CCCCn1c(=O)[nH]c2ccsc2c1=O)N1CCN(c2cccc(Cl)c2)CC1,"inconclusive [inhibitor, partial curve, poor fit]",–
Nc1[nH]n(-c2ccccc2)c(=O)c1N=Nc1ccc2ncsc2c1,"inconclusive [inhibitor, single point]",–
COC(=O)c1ccc(Sc2nnnn2-c2ccccc2)c([N+](=O)[O-])c1,"inconclusive [inhibitor, single point]",–
CCN(CC)CCCNC(=O)Cn1c(-c2cccs2)cc2cc(Cl)ccc21,"inconclusive [inhibitor, partial curve, poor fit]",–
Cc1ccc(NC(=S)N(CCCN2CCOCC2)Cc2ccco2)cc1Cl,"inconclusive [inhibitor, single point]",–
O=C1CSC(c2cn(-c3ccccc3)nc2-c2cc3ccccc3o2)N1Cc1ccccc1 (stereo unspecified),"inconclusive [inhibitor, partial curve, poor fit]",–
CCOC(=O)c1c(C)oc2c(Cl)cc(NS(=O)(=O)c3ccc(Cl)c(C)c3)cc12,–,inactive: -19.5%
CCCCN(CCCC)S(=O)(=O)c1ccc2oc(C(=O)NCc3ccccc3)c(C)c2c1,"inconclusive [inhibitor, partial curve, poor fit]",–
CCC1C(c2ccccc2)N(C)C(c2ccccc2)CC1(O)c1ccccc1 (stereo unspecified),active: 2.51 µM,–
CC(=O)NCc1ccc2[nH]c(C)cc2c1,–,inactive: -3.79%
O=C(Nc1ccccc1)N1CCc2c([nH]c3ccccc23)C1C(F)(F)F (stereo unspecified),active: 2.82 µM,–
CCOC(=O)Cc1csc(NC(=O)c2cc(C)cc(C)c2)n1,"inconclusive [inhibitor, partial curve, poor fit]",–
Cc1ccccc1C(=O)/C=C1/c2ccccc2CC(C)(C)N1C,"inconclusive [inhibitor, partial curve, poor fit]",–

Compound,Potency,"activity change, negative = inhibition"
O=C(c1cc(-c2ccc(O)cc2)on1)N1CCN(c2ccc(F)cc2)CC1,"inconclusive [inhibitor, full curve]",–
Cc1cc(N/N=C/c2cccc(Cl)c2)nc(-n2nc(C)cc2C)n1,"inconclusive [inhibitor, full curve, poor fit]",–
O=C(CSc1nc2ccccc2nc1N1CCCCC1)N1CCN(c2ccccc2)CC1,"inconclusive [inhibitor, partial curve, poor fit]",–
Cc1cc(C)c2nc(NNC(=O)c3cc(-c4cccs4)nc4ccccc34)sc2c1,"inconclusive [inhibitor, single point]",–
CCOC(=O)c1sc2ccccc2c1OC(=O)c1ccccc1,"inconclusive [inhibitor, single point]",–
CCOc1ccc(C(=O)NCC(=O)OCC(=O)c2ccc3c(c2)-c2ccccc2C3)cc1,–,inactive: 6.99%
COc1cc(-c2c(C#N)c(=O)[nH]c3c2c(C)nn3-c2ccccc2)ccc1O,"inconclusive [inhibitor, single point]",–
COC(=O)c1cc(NC(=O)CN(c2ccccc2)S(=O)(=O)N(C)C)ccc1Cl,–,inactive: -6.75%
COc1cccc(NC(=O)CN(C)CC(=O)Nc2cccc(C(F)(F)F)c2)c1,active: 7.08 µM,–
COc1ccc(-n2cnc3ccccc3c2=O)c([N+](=O)[O-])c1,"inconclusive [inhibitor, partial curve, poor fit]",–
CCN(CC)CCCNc1nc(N)c([N+](=O)[O-])c(N2CCCCCC2)n1,"inconclusive [inhibitor, single point]",–
O=C(NC(=S)Nc1ccc(Cl)cn1)C(c1ccccc1)c1ccccc1,"inconclusive [inhibitor, partial curve, poor fit]",–
COc1ccc(C2c3c(ncn(CCCO)c3=N)Oc3ccc4ccccc4c32)cc1OC (stereo unspecified),"inconclusive [inhibitor, single point]",–
Cc1cc(/C=C(\C#N)C(=O)N2CCOCC2)c(C)n1C1CCCC1,"inconclusive [inhibitor, full curve, poor fit]",–
CN1CCN(CC(=O)N(C)c2nc(-c3ccccc3)cs2)CC1,"inconclusive [inhibitor, partial curve, poor fit]",–
COc1cccc(-c2oc3c(c2-c2ccc(Br)nc2)C(O)CCC3)c1 (stereo unspecified),"inconclusive [inhibitor, single point]",–
COc1cccc(N2CCN(C(=O)C3CCCN(S(=O)(=O)c4ccc(Br)s4)C3)CC2)c1 (stereo unspecified),"inconclusive [inhibitor, partial curve, poor fit]",–
COc1ccc(-c2cc(C)no2)cc1S(=O)(=O)Nc1cccc(C)c1,"inconclusive [inhibitor, single point]",–
CN(CC(=O)Nc1ccc(Cl)cc1)CC(=O)Nc1cccc2ccccc12,"inconclusive [inhibitor, partial curve, poor fit]",–
CCCCCCOC(=O)C[N+](C)(C)CCOC1CC2CCC1(C)C2(C)C (stereo unspecified),–,inactive: 0%
